Hit rate of the full screen: of about 390,000 compounds, about 4,000 (1%) were called active. The inconclusive results got no clear call from the source; some entries with a clear call stand among them for comparison. Calls come from the whole dose curve; as a rule, active = well fitted inhibition curve with a large enough effect; inconclusive = small, poorly fitted or top-dose-only effect; inactive = no such curve, though single readings can be large or run the other way. Where the call is inconclusive, the potency comes from a doubtful curve fit.
Target: Thioredoxin reductase 1, cytoplasmic (Rattus norvegicus) (UniProt O89049)
Chain of UniProt O89049 (O89049 whole entry, looked up): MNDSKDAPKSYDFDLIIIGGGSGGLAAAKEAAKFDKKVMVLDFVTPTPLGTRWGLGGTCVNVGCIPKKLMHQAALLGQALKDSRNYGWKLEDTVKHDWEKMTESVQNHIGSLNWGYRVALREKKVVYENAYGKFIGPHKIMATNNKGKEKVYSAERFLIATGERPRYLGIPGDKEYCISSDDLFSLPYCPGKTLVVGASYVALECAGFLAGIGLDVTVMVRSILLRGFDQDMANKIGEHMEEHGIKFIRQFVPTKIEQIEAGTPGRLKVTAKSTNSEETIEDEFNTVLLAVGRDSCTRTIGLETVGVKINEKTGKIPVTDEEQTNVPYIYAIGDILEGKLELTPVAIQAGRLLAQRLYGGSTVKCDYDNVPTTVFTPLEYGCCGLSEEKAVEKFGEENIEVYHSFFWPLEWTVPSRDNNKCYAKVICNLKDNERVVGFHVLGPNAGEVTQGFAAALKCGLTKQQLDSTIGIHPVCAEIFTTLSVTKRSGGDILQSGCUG
Assay: qHTS Assay for Inhibitors of Mammalian Selenoprotein Thioredoxin Reductase 1 (TrxR1): qHTS; note: nearly all actives have a fitted effect of over 65% in size
Conditions: recombinant rTrxR1, NADPH fluorescence consumption, selenite substrate; series mostly up to 114 µM; activity change, negative = inhibition: at the top concentration
In short: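 Rat TrxR1 (90 nM in the dispensed reagent) was pre-reduced with 400 uM NADPH for 5 min at room temperature, then incubated with compound for 15 min. After 400 uM selenite was added, NADPH fluorescence (Ex 340/Em 450 nm) was followed for 8 min.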
% is set by controls: 0 for no effect and ±100 for the full control effect; potency is the fitted concentration of half-maximal effect; tags give direction and shape of the fitted curve.

Question: `OCCN(CCO)c1ncnc2c1sc1nc(N3CCOCC3)c3c(c12)CCCC3` was tested. Which Potency did it give?
Answer: Its Potency is inconclusive: 89.1 µM [inhibitor, single point].

Question: How did the Potency turn out when `Cc1ccc2c(C(=O)CNc3nncs3)c(C)[nH]c2c1` was run?
Answer: The Potency was inconclusive: 31.6 µM [inhibitor, partial curve].

Question: How did the “activity change, negative = inhibition” value turn out when `COc1ccc(Br)cc1C1NC(c2ccc3c(c2)OCO3)=CC(c2ccccc2O)N1` (configuration not stated) was run?
Answer: The value was inactive: -6.13%.

Question: How did the Potency turn out when `CN(C)C(=O)c1ccc(NC(=O)c2ccc(-c3ccc(Cl)cc3)o2)cc1` was run?
Answer: The Potency was inconclusive: 79.4 µM [inhibitor, partial curve].

Question: For `O=c1cc(-c2ccc(O)cc2)oc2c(-c3c(O)cc(O)c4c(=O)cc(-c5ccc(O)cc5)oc34)c(O)cc(O)c12`, which “activity change, negative = inhibition” value is on record?
Answer: Its value is inactive: -3.94%.

Question: For `Cn1c(-c2csc(-c3ccccc3)n2)n[nH]c1=S`, which “activity change, negative = inhibition” value is on record?
Answer: The value was inactive: 2.94%.

Question: With `COC(=O)c1ccc2nc(-c3cccc(N)c3)cn2c1` as the compound, how does the “activity change, negative = inhibition” value read?
Answer: The value was inactive: 20.5% [at 57.1 µM].

Question: Which Potency does the source give for `C=CCN1C(=O)/C(=C\c2ccco2)C(C(=O)OC)=C1C` here?
Answer: The Potency was inconclusive: 56.2 µM [inhibitor, partial curve, poor fit].

Question: How did the Potency turn out when `COc1ccc(NC2=CC(c3ccc(F)cc3)N(c3ccc(OC)cc3)C2=O)cc1` (configuration not stated) was run?
Answer: Its Potency is inconclusive: 50.1 µM [inhibitor, partial curve].

Question: How did the Potency turn out when `O=C(C1=C(O)C(=O)N(CCCn2ccnc2)C1c1cccc(Br)c1)c1ccco1` (configuration not stated) was run?
Answer: Its Potency is inconclusive: 70.8 µM [inhibitor, partial curve, poor fit].

Question: With `COc1ccc(C2C(=O)N(C3CCCCC3)CC(=O)N2Cc2ccco2)cc1` (configuration not stated) as the compound, how does the Potency read?
Answer: Its Potency is inconclusive: 50.1 µM [inhibitor, partial curve, poor fit].

Question: For `Cc1nc(SCC(=O)N(C)Cc2ccco2)c2c(C)c(C)sc2n1`, which Potency is on record?
Answer: Its Potency is active: 22.4 µM.

Question: Which Potency does the source give for `COc1ccc2c(c1)CC/C(=C\c1ccc(C)o1)C2=O` here?
Answer: The Potency was inconclusive: 50.1 µM [inhibitor, partial curve, poor fit].

Question: Which Potency does the source give for `CCN1C(=O)C2(C(C(=O)c3ccc(C)o3)=C(O)C(=O)N2CCCN2CCOCC2)c2ccccc21` (configuration not stated) here?
Answer: The Potency was inconclusive: 15.8 µM [inhibitor, full curve].

Question: With `Cc1ccc(NC2=C(Cl)C(=O)c3ccccc3C2=O)cc1` as the compound, how does the Potency read?
Answer: The Potency was active: 3.55 µM.

Question: Which Potency does the source give for `CC1=CC2=NC(=O)/C(=C\c3cc(C)n(-c4ccc(F)cc4)c3C)C(=N)N2O1` here?
Answer: Its Potency is inconclusive: 39.8 µM [inhibitor, single point].

Question: With `Cc1cccc(-n2ncc3c(NCc4ccco4)ncnc32)c1` as the compound, how does the “activity change, negative = inhibition” value read?
Answer: The value was inactive: 1.79% [at 57.1 µM].

Question: How did the Potency turn out when `COC1=C(OC)C(=O)C(Sc2ccc3ccccc3c2)=CC1=O` was run?
Answer: Its Potency is inconclusive: 1.78 µM [inhibitor, partial curve, poor fit].

Question: With `O=C(NC(=S)Nc1ccc(CN2CCOCC2)cc1)c1ccc2c(c1)OCCO2` as the compound, how does the Potency read?
Answer: Its Potency is inconclusive: 31.6 µM [inhibitor, single point].

Question: With `COc1ccc(N2C(=O)CC(NCCNc3ccc([N+](=O)[O-])cn3)C2=O)cc1` (configuration not stated) as the compound, how does the Potency read?
Answer: The Potency was active: 14.1 µM.

Question: `O=C1CC(c2ccccc2)C(=O)N2C(=O)CC(c3ccccc3)C(=O)N12` (configuration not stated) was tested. Which Potency did it give?
Answer: Its Potency is inconclusive: 89.1 µM [inhibitor, single point].

Question: With `CSc1ccc(/C=C/C(=O)OCC(=O)NC2CCS(=O)(=O)C2)cc1` (configuration not stated) as the compound, how does the Potency read?
Answer: Its Potency is inconclusive: 100 µM [inhibitor, single point].

Question: Which Potency does the source give for `CC1=CC(=O)C(C(C)C)=C/C1=N/OS(=O)(=O)c1ccccc1` here?
Answer: The Potency was inconclusive: 25.1 µM [inhibitor, full curve].

Question: How did the Potency turn out when `Cc1cccc2cc(CN(CC3CCCO3)C(=O)c3ccco3)c(=O)[nH]c12` (configuration not stated) was run?
Answer: Its Potency is active: 15.8 µM.

Question: For `COc1ccccc1NC(=O)c1oc2ccccc2c1NC(=O)c1ccco1`, which “activity change, negative = inhibition” value is on record?
Answer: The value was inactive: -11.7%.

Question: For `CCN(CC)c1ccc(C(=S)N2CCN(c3ccccc3)CC2)cc1`, which “activity change, negative = inhibition” value is on record?
Answer: Its value is inactive: 0.945%.

Question: Which Potency does the source give for `COc1ccc(NC(=O)CCS(=O)(=O)c2cccc3nonc23)c(OC)c1` here?
Answer: Its Potency is inconclusive: 44.7 µM [inhibitor, partial curve].

Question: `CCOc1ccccc1C1NC(=O)NC(C)=C1C(=O)OCc1ccco1` (configuration not stated) was tested. Which Potency did it give?
Answer: The Potency was inconclusive: 20 µM [inhibitor, partial curve, poor fit].

Question: `O=C(CSc1nc2ccccc2c(=O)n1CCCO)NCc1ccccc1` was tested. Which Potency did it give?
Answer: Its Potency is inconclusive: 3.55 µM [inhibitor, single point].

Question: For `Cc1c(Cl)cccc1Nc1nc(N)nc(CN2CCCCCC2)n1`, which Potency is on record?
Answer: The Potency was inconclusive: 70.8 µM [inhibitor, single point].

Question: How did the Potency turn out when `COc1ccc(C(=O)NNC2=CC(=O)CC(C)(C)C2)cc1` was run?
Answer: Its Potency is inconclusive: 44.7 µM [inhibitor, partial curve].

Question: How did the Potency turn out when `CS(=O)(=O)c1ccc(C(=O)OCC(=O)NC(=O)NC2CCCCC2)cc1[N+](=O)[O-]` was run?
Answer: The Potency was active: 7.08 µM.

Question: `Cc1noc(NS(=O)(=O)c2ccc(N/C=C\C(=O)c3ccc4c(c3)OCO4)cc2)c1C` was tested. Which Potency did it give?
Answer: The Potency was inconclusive: 14.1 µM [inhibitor, partial curve, poor fit].

Question: For `CC1(C)CC(=O)C2=C(C1)OC(N)=C(C#N)[C@@H]2c1ccccc1[N+](=O)[O-]`, which Potency is on record?
Answer: The Potency was active: 20 µM.

Question: With `CSc1ccc(S(=O)(=O)NCC(=O)OC(C)C(=O)NCc2ccccc2)cc1[N+](=O)[O-]` (configuration not stated) as the compound, how does the Potency read?
Answer: Its Potency is inconclusive: 79.4 µM [inhibitor, single point].

Question: How did the “activity change, negative = inhibition” value turn out when `O=[N+]([O-])c1ccc(O)c(/C=N/n2cnc3ccccc32)c1` was run?
Answer: The value was inactive: -19.8%.

Question: Which Potency does the source give for `COc1ccc(C(Nc2ccccn2)c2ccc3ccc(C)nc3c2O)cc1C` (configuration not stated) here?
Answer: The Potency was inconclusive: 7.94 µM [inhibitor, full curve].

Question: Which Potency does the source give for `CCCN(CCC)CCCNC(=O)c1cc2c(=O)n(C)c3ccccc3c2s1` here?
Answer: The Potency was inconclusive: 22.4 µM [inhibitor, partial curve, poor fit].

Question: For `COc1ccc(OC)c(-n2c(-c3cccc(O)c3)n[nH]c2=S)c1`, which Potency is on record?
Answer: The Potency was inconclusive: 5.01 µM [inhibitor, partial curve, poor fit].

Question: With `COc1ccc(-n2cc(CNCC3CC(=O)N(C4CC4)C3)c(-c3ccccc3Cl)n2)cc1` (configuration not stated) as the compound, how does the Potency read?
Answer: The Potency was inconclusive: 79.4 µM [inhibitor, partial curve, poor fit].

Question: For `COc1ccc(Cl)cc1S(=O)(=O)N1CCN(CC(=O)C(C)(C)C)CC1`, which Potency is on record?
Answer: Its Potency is inconclusive: 17.8 µM [inhibitor, single point].

Question: With `CC(/C=C/c1ccc(Cl)o1)=C\C(=O)O` as the compound, how does the Potency read?
Answer: The Potency was inconclusive: 79.4 µM [inhibitor, single point].

Source: PubChem BioAssay AID588453 (National Center for Advancing Translational Sciences (NCATS), 2011)
